Measurements published in the supplement of paper PMC11417369.
± gives the standard deviation of the averaged measurements. The list shows a part of the results.

System: PfAP2-EXP AP2 domain (GST-tagged)
Test: gcPBM binding intensity (ln(normalized median fluorescence intensity)); higher = stronger DNA binding
In short: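 An Agilent 4 × 180k array of primer-extended double-stranded 36-bp intergenic genomic probes, with negative controls, was incubated for 1 h with GST-tagged P. falciparum DNA-binding domains expressed in E. coli. Alexa488 anti-GST antibody detected bound protein, scanned at 488 nm. Binding intensity is the highest Masliner-normalised natural-log median intensity across replicate spots of either probe orientation.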

Sequence | gcPBM binding intensity (ln)
TATAAAAAGGAAAAATAAAAATAAAAATAAAAATTA [CACACA_negctrl_site1822] | 8.28 ± 0.46
ATATTTATATATATATGTACATATGTGTGTTTTTAT [XGTACX_site3956] | 8.74 ± 0.49
AAAAAAATAATGTACACACACATATCTGTTTATATA [CACACA_site4270] | 8.49 ± 0.26
TCATAAACATTATGCACACAAAAATAAAAAAAAATA [CACACA_site1115] | 8.73 ± 0.18
ATATATAACTTTTCTTAACACACAAAAAACAAAAAT [CACACA_site8748] | 8.69 ± 0.51
GTATTCTACAGACACATACACACATATATATATATA [CACACA_site3427] | 10.1 ± 0.22
AAAAAATAATTGAAGTGTACGTACAATGATTTTACT [XGTACX_site7663] | 8.77 ± 0.35
TAAACCTTAAAATATTTCTCATGTTTAACTTATATT [GTGCAC_negctrl_site233] | 8.52 ± 0.44
AAGAAAAACTTTACGTGTACCAAACATCCTGCCGAC [XGTACX_site4895] | 8.58 ± 0.54
GGGAGAAATTTATACATACACACATATATATATTAT [CACACA_site4039] | 8.71 ± 0.45
TTATAATATTGTGGTATACACACCTTACAAAAAGGT [CACACA_site2878] | 8.52 ± 0.39
TATATTCTACAAGAATTATGAATTGTCAGACCAAAT [CACACA_negctrl_site1101] | 8.29 ± 0.38
TTATATACCCTAATATGTTTTATTATTATTATATAT [TGCATGCA_negctrl_site6] | 8.35 ± 0.34
TACAATGTGGATAATTGTACAAAACCGATAAGAGGG [XGTACX_site6453] | 9.19 ± 0.33
TGTTCTGAACGGTTCATGCACTTTTTTTTGTTAATT | 8.69 ± 0.45
CTGTTTTTGTTTTAAAGTACATTGTTCAATATACAT [XGTACX_site5288] | 8.79 ± 0.23
TTTATTTTCATATGAACACACATATATATATTATAA [CACACA_site2369] | 8.82 ± 0.49
ATATAAATAATATAAATACACACTAAAAAAAATATA [CACACA_site542] | 8.72 ± 0.51
AACTAAACAAAAGTTACACACATCATACGATATTAT [CACACA_site3180] | 8.3 ± 0.37
ATAATTTATATTCAGAAACACACGAAAAAAAAAAAT [CACACA_site1296] | 8.84 ± 0.45
ATGTTAAGAATAATTAGTACTTACATATGTATAATA [XGTACX_site4419] | 8.54 ± 0.32
TATATTATATACGTCTGTACACAAATGAGAGGTAAA [XGTACX_site5538] | 8.88 ± 0.43
ACCATATAATTTTTTTGTACATAATGATTTTTTTTT [XGTACX_site1104] | 8.71 ± 0.4

Sequence | gcPBM binding intensity (ln)
AATAATATATATTGTACACACAAAATGGGAAAAAAA [CACACA_site5100] | 8.98 ± 0.42
AAAAAATAATAATAAAATGAATAGATATGTATTTAT [TGCATGCA_negctrl_site210] | 8.4 ± 0.32
TTATAAAAAAAAAAAAAAAATATATATATATATATA [XGTACX_negctrl_site592] | 10.3 ± 0.13
ACAAAATGTAAATAAACACACATATATATATATATA [CACACA_site1281] | 10.1 ± 0.39
ATATATATATATATTTGTACAGAAAATATTTTAATA [XGTACX_site3706] | 10 ± 0.21
AGCAGAGTTACAATTTGTACGTAATTGATATAGATA [XGTACX_site4051] | 8.75 ± 0.48
AACATATTATCTTGTGAAAATAATATAAGTCACATT [TGCATGCA_negctrl_site339] | 8.29 ± 0.38
TATATAAACCCGTACACACACATATATGTATATATA [CACACA_site3507] | 8.91 ± 0.25
TTACTCATGAAAGATACACACATTCATTATATATAT [CACACA_site3252] | 8.7 ± 0.26
AGACATAAGATAATTACACACAATACATCCCTATAT [CACACA_site2227] | 8.61 ± 0.42
TACTTCTACAAGAGAAGTACAATATTTTTTATATTA [XGTACX_site8351] | 7.95 ± 0.32
AATAAAAATTTACTTTGTACACATATTAAATTCAAT [XGTACX_site1957] | 8.18 ± 0.18
AAATTTACAATACATTGTACATATTAATAATATTCC [XGTACX_site3646] | 8.34 ± 0.36
TTAACGTAAAATATAGTGCATAGTATCATATTGATA [GTGCAC_site9527] | 8.56 ± 0.3
CAATCAAAGAAACACACACACACCTAAACATAAAAG [CACACA_site2756] | 8.74 ± 0.61
TGTAGTTTGTCCCATGCATGTTCCATTAAAATATAT [TGCATGCA_site854] | 9.27 ± 0.38
AATGTATATATGTAATGTACATATATAATGTATATA [XGTACX_site6510] | 8.48 ± 0.26
AATGTAAAATATATGTGTACATATGTTTATATATAT [XGTACX_site2216] | 8.71 ± 0.23
AAATGTGTTTATTTAACACACAAAAGAAAAAATATA [CACACA_site6993] | 8.55 ± 0.43
GTGTGTTGTATATACTGTACATACTTTATATATAGT [XGTACX_site1876] | 8.63
TATAACAAGTAATGTTGTACATTGTATTATGTAATA [XGTACX_site6372] | 8.28 ± 0.3
AGATATATTATTAGGTGTACTATAAAATAAATTCAC [XGTACX_site221] | 8.55 ± 0.47
CGAACAAACAAATAAACACACAAAAAAAGATATATA [CACACA_site6944] | 8.72 ± 0.57

Sequence | gcPBM binding intensity (ln)
AAAAAAAATTAGGAAACATGCATGTCCCGATAAATA [TGCATGCA_site149] | 9.16 ± 0.2
AAAATCAAGTAGTATAAAGTAAGTATCATAAAAATA [CACACA_negctrl_site1554] | 8.71 ± 0.32
ATAATAAAATGGAGAGTGCATACATGTTTATTTTAT | 8.93 ± 0.33
GTACACTAATTATGTGCACACAAATTAAAGGTCTAC [CACACA_site146] | 8.88 ± 0.19
TATGGAAGAAAATATACACACAAAAAAAAAAAATGT [CACACA_site1486] | 8.79 ± 0.48
AATTTATTATTTGTATGTACTCATATGATTCACTTA [XGTACX_site2797] | 8.79 ± 0.42
ATACTTTTATTTTTGGTGCATATATCATGTAGACGT | 9.025 ± 0.035
AAATGAAATAAATGTAGTACACATATACAATATATA [XGTACX_site6951] | 8.62 ± 0.22
TGTATATCATATATTTGTACTCAATTAATATAAACA [XGTACX_site3970] | 8.38 ± 0.38
TATTTTTATACAATTTAACACGGGTTATAAAATGTA [CACACA_negctrl_site566] | 8.34 ± 0.45
ACATCTAATTTGTATACACACAATAATAAATGGTGA [CACACA_site824] | 8.37 ± 0.38
TTGTATATATGACTTTTTTATATTTCAATTTTGTGC [CACACA_negctrl_site296] | 8.34 ± 0.34
TATATATATTTATAATGTACATATTTTTTTTTATTT [XGTACX_site4761] | 8.71 ± 0.37
GAGATAAAATAAAACACACACATATATTTATATAAC [CACACA_site7098] | 8.75 ± 0.42
TATTAATTTTTAAACATAATTTTTCGTATAATATAT [CACACA_negctrl_site762] | 8.18 ± 0.38
TTTACTTTCTTATTTTCACACATTTAAAAAAAAATT [CACACA_site5949] | 8.62 ± 0.49
TTTTTATTAAAATGTATTTTAGGAAAAAACAAAAAA [XGTACX_negctrl_site437] | 8.23 ± 0.45
TTCCCTTTTGTAAAATGTACATATATATTTAAACAA [XGTACX_site3263] | 8.7 ± 0.38
TAAGTTCCCTTTGAATGTACATATAATGAAAAGAAA [XGTACX_site826] | 8.76 ± 0.37
AAAAAACTTTTAAGCACACACATAGATAATATAGAT [CACACA_site6835] | 8.88 ± 0.58
TTTTTTTTTTTTGTCACACATATTTGTATTAATCAT [CACACA_site5235] | 8.48 ± 0.61
CAACATTTGAAACACACACACATACAAACAAACAAA [CACACA_site3306] | 8.89 ± 0.47
TGAAATGGAAACAACTGTACAAAATAAATATGATAT [XGTACX_site1311] | 8.98 ± 0.53

Sequence | gcPBM binding intensity (ln)
AATATTAACAATCGCACACATATTATTTTTCCAAAA [CACACA_site4982] | 8.54 ± 0.4
ATATAAATATAGCATACACACAAAAAAATAAAATAA [CACACA_site2333] | 8.78 ± 0.52
TAAACAAAATATATATGTACATATATATATATATAT [XGTACX_site6502] | 9.97 ± 0.42
CATTAATAACAAAGTTGTACAAGATAATATTATATG [XGTACX_site6832] | 8.96 ± 0.31
ATCTAGCCATTTTTTAGTACACATAAATAAAAAAAA [XGTACX_site1257] | 8.715 ± 0.007
TTTTATTTGACAAGCACACACTTAAATATATTTATA [CACACA_site7557] | 8.6 ± 0.45
ACATAAGAAGTTATATGTACATATATTTTTTAAATT [XGTACX_site8078] | 8.4 ± 0.24
AAAACATTTTCAAACTGTACACATAGAACTATGCAT [XGTACX_site4087] | 8.61 ± 0.35
TACACAAGAAAATTCACACACACACGGATATTTATA [CACACA_site7765] | 8.66 ± 0.47
ACGTACTGCCCTAAAGTGCATATATAATATAAACGA [GTGCAC_site9911] | 8.66 ± 0.24
GTATCGAAGTAAATACGTACTTAAATATGTTTAAAA [XGTACX_site1353] | 8.34 ± 0.32
GTATTTTAATATAAATGTACATAAATGTTATATATA [XGTACX_site3475] | 8.35 ± 0.3
AATATTGTATATAATAAACACACAATATTAAAAATA [CACACA_site8262] | 8.4 ± 0.4
CTTTAAACCCTGAACACACACAAATACAGACAAAAA [CACACA_site247] | 8.71 ± 0.54
AGGATATATAATTAAGTGCATTAATTCAAAATAAAA [GTGCAC_site9702] | 8.74 ± 0.12
CATATATAAATCATGTGTACGTATTGAGTATCTACT [XGTACX_site6278] | 8.66 ± 0.18
TTATTATTTTATAACACACACATATATATTATATCT [CACACA_site1434] | 8.48 ± 0.31
ATAAGATATGTATATACACACATTTATTTACCTATA [CACACA_site7521] | 8.66 ± 0.38
ATATGACTTAAATATGTGCGCATTTTTTTTTTTTTT | 8.64 ± 0.38
ATATTTTCTAATCAATGTACTTATTCTACACATTAA [XGTACX_site5774] | 8.69 ± 0.37
